# Assay results from publication PMC5540273 (PLoS ONE, 2017).
# For part of these data: What follows is the remainder of the data, with few or none of the strong results. This is a selection; strong and weak results do not stand in their true shares.
# Assays:
# Details in all cases: concentration: 1 μM,replicates: in singlicate; n = 1
# [1] = tested on: T1, RSK3(Kin.Dom.1-N-terminal)
# T1 construct: gene RPS6KA2
# [2] = tested on: T2, RSK3(Kin.Dom.2-C-terminal)
# T2 construct: gene RPS6KA2
# [3] = tested on: T3, RSK4(Kin.Dom.1-N-terminal)
# T3 construct: gene RPS6KA6
# [4] = tested on: T4, RSK4(Kin.Dom.2-C-terminal)
# T4 construct: gene RPS6KA6
# S6K1 = tested on: S6K1
# SBK1 = tested on: SBK1
# SGK2 = tested on: SGK2
# SGK3 = tested on: SGK3
# SGK = tested on: SGK
# SIK2 = tested on: SIK2
# SIK = tested on: SIK
# SLK = tested on: SLK
# SNARK = tested on: T5, SNARK
# T5 construct: gene NUAK2
# SNRK = tested on: SNRK
# SRC = tested on: SRC
# SRMS = tested on: SRMS
# SRPK1 = tested on: SRPK1
# SRPK2 = tested on: SRPK2
# SRPK3 = tested on: SRPK3
# STK16 = tested on: STK16
# 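Note: KINOMEscan kinase panel screen.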
SMILES,%Inh [1] [%],%Inh [2] [%],%Inh [3] [%],%Inh [4] [%],%Inh (S6K1) [%],%Inh (SBK1) [%],%Inh (SGK2) [%],%Inh (SGK3) [%],%Inh (SGK) [%],%Inh (SIK2) [%],%Inh (SIK) [%],%Inh (SLK) [%],%Inh (SNARK) [%],%Inh (SNRK) [%],%Inh (SRC) [%],%Inh (SRMS) [%],%Inh (SRPK1) [%],%Inh (SRPK2) [%],%Inh (SRPK3) [%],%Inh (STK16) [%]
CS(=O)(=O)c1ccccc1-c1nc(-c2ccc(F)cc2)c(-c2ccncc2)[nH]1 [SB-213663],5,28,0,63,0,0,5,0,5,0,4,0,0,7,13,0,0,32,9,8
O=C1NC(=O)C(c2ccccc2)=C1Nc1cc(Cl)c(O)c(Cl)c1 [SB-390530],14,0,10,0,14,0,0,34,0,9,2,30,46,2,0,0,12,2,26,20
O=C(O)c1ccc(-c2nc(-c3ccc(F)cc3)c(-c3ccncc3)[nH]2)cc1 [SB-202620],8,31,29,93.9,3,14,0,0,6,39,20,12,0,2,18,33,14,0,21,0
CSc1ccc(NC2=C(c3cccc(Cl)c3)C(=O)NC2=O)cc1 [SB-341528],0,0,13,1,26,2,21,8,12,0,0,31,8,5,4,5,4,0,0,0
O=C1NC(=O)C(c2ccc(Cl)cc2)=C1Nc1ccccc1 [SB-317661],0,0,15,0,26,23,26,19,20,0,0,0,6,0,0,31,0,0,0,0
O=C1NC(=O)c2c1c(-c1ccccc1)cc1[nH]c3ccc(O)cc3c21,97.6,10,98.4,19,49,25,27,72,59,50,34,96.6,90.1,15,0,30,0,13,68,0
Cc1ccc(C)c(Oc2nccc(-c3c(-c4ccc(F)cc4)ncn3C3CCNCC3)n2)c1.O=C(O)C(F)(F)F.O=C(O)C(F)(F)F.O=C(O)C(F)(F)F [SB-284852],18,6,0,0,0,0,7,–,0,0,34,17,0,0,4,0,0,22,10,0
O=C1NC(=O)C(c2ccccc2)=C1Nc1ccc(Cl)c(C(=O)O)c1 [SB-390532],5,0,0,0,15,0,5,1,12,0,0,0,0,0,0,0,23,24,0,9
